# According to PMC6919601, “Identification of Plasmodium dipeptidyl aminopeptidase allosteric inhibitors by high throughput screening” (PLoS ONE, 2019):
# The campaign covered roughly 110,000 compounds. About 230 (0.21%) showed an effect of 50% or more. The list shows a part of the results.
# Target: DPAP1 (Plasmodium falciparum, UniProt Q8IIJ9)
# Experiment: primary screen, percent inhibition; read by cleavage of a fluorogenic dipeptide substrate; higher = more effect of the substance
# Set-up: species or system P. falciparum D10 trophozoite lysates; single well
# 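Also: 30 min substrate incubation versus DMSO and 10 µM JCP410 controls.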
# Chain of DPAP1 (Q8IIJ9 whole entry, looked up): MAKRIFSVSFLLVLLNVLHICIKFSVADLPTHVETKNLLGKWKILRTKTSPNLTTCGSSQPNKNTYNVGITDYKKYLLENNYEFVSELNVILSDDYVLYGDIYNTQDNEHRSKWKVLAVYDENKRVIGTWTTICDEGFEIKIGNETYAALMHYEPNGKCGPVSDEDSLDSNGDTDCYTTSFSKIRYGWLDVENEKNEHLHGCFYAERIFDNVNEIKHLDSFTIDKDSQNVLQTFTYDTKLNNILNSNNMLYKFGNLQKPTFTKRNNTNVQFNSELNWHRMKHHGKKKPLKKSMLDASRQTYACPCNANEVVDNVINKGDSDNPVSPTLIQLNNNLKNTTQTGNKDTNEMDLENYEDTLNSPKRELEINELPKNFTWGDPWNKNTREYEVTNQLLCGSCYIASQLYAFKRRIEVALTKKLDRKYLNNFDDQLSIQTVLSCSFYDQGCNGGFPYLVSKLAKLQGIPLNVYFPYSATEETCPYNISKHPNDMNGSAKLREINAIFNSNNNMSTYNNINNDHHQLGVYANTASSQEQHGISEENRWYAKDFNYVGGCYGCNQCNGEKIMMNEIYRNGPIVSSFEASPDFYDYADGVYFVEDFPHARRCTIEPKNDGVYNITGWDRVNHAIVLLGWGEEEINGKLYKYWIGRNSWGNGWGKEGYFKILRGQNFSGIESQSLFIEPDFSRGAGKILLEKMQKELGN
row,Structure (SMILES),% Inhibition @ 10 uM
1,CCC(=O)N1N=C(c2ccccc2)CC1c1ccc(F)cc1 (stereo not shown),-0.641%
2,CC1CCCCN1CCNC(=O)c1cnn(-c2ccccc2)c1-n1cccc1 (stereo not shown),1.8%
3,COc1cc(C=C2C(=O)N(C)C(=O)N(C)C2=O)ccc1OS(=O)(=O)c1ccccc1,-1.93%
4,c1ccc(C2CCC(NCc3ccco3)CC2)cc1 (stereo not shown),-3.6%
5,Cn1c(=O)c2nc3ccc(NC(=O)c4ccccc4)cc3nc2n(C)c1=O,-10.8%
6,Nc1ncc(Br)cc1S(=O)(=O)NCCC(=O)NCc1ccc2c(c1)OCO2,-1.87%
7,Nc1nonc1C(=O)NCCNCC#Cc1ccccc1,3.27%
8,Cc1ccc(C)c(Cn2nnc3c2nc(C)n2c(O)nnc32)c1,2.29%
9,Cc1ccc(CCNC(=O)C2(NS(=O)(=O)c3cccc4cccnc34)CCCCC2)cc1,-7.99%
10,CCN(CC)S(=O)(=O)c1ccc(C)c(C(=O)O)c1,0.177%
11,Cc1cccc(NC(=O)c2cccnc2)c1,3.58%
12,Cc1[nH]c2ccccc2c1/C=C1\SC(=N)N(c2nonc2N)C1=O,0.503%
13,CCOCCCNc1nc2c(S(=O)(=O)c3ccc(C(C)C)cc3)nnn2c2ccsc12,1.37%
14,CN(CC(=O)N1CC=C(c2ccccc2)CC1)S(=O)(=O)c1c[nH]cn1,1.63%
15,CC(C)CNc1nc2c(c(=O)[nH]c(=O)n2C)n1C(C)C,-6.71%
16,COc1cc(C2NC(=O)N(C)C(C)=C2C(=O)OCc2ccccc2)cc(Cl)c1O (stereo not shown),-1.4%
17,CCn1c(CNC(=O)c2ccccc2)nc2ccccc21,1.23%
18,Nc1cc(O)nc2nnc(SCc3nnnn3-c3ccccc3)n12,-3.23%
19,Cc1c(Cl)cccc1NC1=NC(=O)/C(=C2/C(=O)Nc3ccccc32)S1,-4.21%
20,COc1ccc(Cn2c(=O)c(C#N)cc3c(=O)n4ccccc4nc32)cc1,1.12%
21,C=C(C)C(=O)N1CCC(C(O)(c2ccccc2)c2ccccc2)CC1,1.88%
22,CC(C#N)(Cc1ccccc1)Nc1ccccc1 (stereo not shown),-5%
23,COc1ccc(C2CC(C(F)(F)F)n3nc(C(=O)Nc4cccnc4)cc3N2)cc1 (stereo not shown),4.86%
24,O=c1[nH]c2ccccc2n2/c(=N/c3ccccc3)sc(-c3ccccc3)c12,-4.01%
25,O=S1(=O)CCC(S(=O)(=O)N2CCCCC2)C1 (stereo not shown),5.64%

row,Structure (SMILES),% Inhibition @ 10 uM
1,NC(=O)c1cc(S(=O)(=O)NCCSCc2ccco2)cs1,-3.23%
2,COC(=O)C1=C(N)Oc2cc(C)n(CCCn3ccnc3)c(=O)c2C1c1ccc(Cl)cc1 (stereo not shown),5.5%
3,Cc1[nH]nc2c1C(c1ccc(OCc3cccc4ccccc34)cc1)C(C#N)=C(N)O2 (stereo not shown),-3.46%
4,Cc1nc2sccn2c1-c1csc(Nc2ccc(N)cc2)n1,2.65%
5,C=CCOc1cccc(C2c3c(oc4ccc(F)cc4c3=O)C(=O)N2c2nc(C)c(C(C)=O)s2)c1 (stereo not shown),3.73%
6,O=S(=O)(NCCSCc1ccco1)c1ccc(-c2ccc(O)nn2)s1,-4.33%
7,COc1c(Cl)cc(C(=O)N(Cc2sccc2C)C2CCS(=O)(=O)C2)cc1Cl (stereo not shown),-4.64%
8,CCOC(=O)c1cc(C)n(CC2CCC(C(=O)NCc3ccc(F)cc3)CC2)c1C (stereo not shown),-1.3%
9,CCN(C(=O)c1cc(OC)cc(OC)c1)c1nc(-c2ccc(C)cc2)cs1,1.22%
10,O=C(CCCCC(=O)Nc1ccccc1Cl)Nc1ccccc1Cl,-5.96%
11,CCOC(=O)C1=C(CS(=O)(=O)c2ccc(C)c(C)c2)NC(=O)NC1c1ccc(C(C)C)cc1 (stereo not shown),-0.431%
12,O=C(CCCCn1c(=O)[nH]c2ccsc2c1=O)N1CCC(N2CCCCC2)CC1,0.505%
13,O=C(NCC12CC3CC(CC(C3)C1)C2)c1ccc(S(=O)(=O)c2ccccc2)cc1,-6.28%
14,CCc1ccc(CNc2nc3nc4c(c(O)n3n2)CCC4)cc1,-2.4%
15,CC(C)C(=O)NC(C)C(c1cccs1)N1CCN(C)CC1 (stereo not shown),-2.88%
16,CN(CC(=O)NCCN1CCCCCC1)S(=O)(=O)c1cccc2nsnc12,2%
17,CN1CCN(CCCOc2cc(Cl)ccc2Cl)CC1,-9.36%
18,CCOc1ccc(/C=C2\C(=O)NC(C)=C2C(=O)OC)cc1,-3.5%
19,Cc1cc(O)nc2nc(O)sc12,-0.92%
20,Cc1cc(/C=C2/SC(=S)NC2=O)c(C)n1-c1ccc(Br)cc1,-1.32%
21,CC(C(=O)NC1CCCC1)n1c2ccccc2c2cnnc(O)c21 (stereo not shown),8.95%
22,COc1ccc(-c2noc(CN(C(=O)c3cc(C)cc(C)c3)C(C)C)n2)cc1,-2.14%
23,COc1ccc(NC(=O)CN2CCN(c3ccc(C)c(Cl)c3)CC2)cc1,-1.41%
24,CCOC(=O)c1c(NC(=O)Cc2coc3ccc(C)cc23)sc2c1CCCC2,7.17%
25,Cc1ccc(C)c(CN2CCC(CNC(=O)CCc3nnc4ccc(N5CCCC5)nn34)CC2)c1,3.51%

row,Structure (SMILES),% Inhibition @ 10 uM
1,COC(=O)c1scc(-c2ccccc2)c1S(=O)(=O)N1CCC(C)CC1,-4.17%
2,COc1ccc(C2C(C#N)=C(N)Oc3cc(C)oc(=O)c32)cc1C (stereo not shown),3.1%
3,Cc1cc(C)c(S(=O)(=O)NCC(=O)NCC2CCCO2)c(C)c1 (stereo not shown),-4.65%
4,CN1CCC(N(C)Cc2ccc(F)c(Br)c2)CC1,-0.192%
5,Nc1ncc(Br)cc1S(=O)(=O)NCCC(=O)NCCC1=CCCCC1,-1.26%
6,CC1(C)Cc2c(sc3nc(O)n4ncnc4c23)CO1,-5.38%
7,O=c1c2oc3ccccc3c2ncn1Cc1ccccc1Cl,-2.67%
8,C=CCNC(=O)c1ccccc1NS(=O)(=O)c1ccc2c(c1)OCCO2,4.53%
9,Cc1ccc(NC(=O)C2COc3ccccc3O2)nc1 (stereo not shown),-3.75%
10,CCOC(=O)NC(=O)/C(=C\Nc1ccc(NC(C)=O)cc1)C(C)=O,2.44%
11,COc1ccc(C2C3=C(NCCN=C3c3ccc(Cl)cc3)C(=O)N2c2ccccc2)cc1 (stereo not shown),8.92%
12,COC(=O)C1CCCN1Cc1ccc(O)c(OC)c1 (stereo not shown),-0.0648%
13,CCCN(CCC)C(=O)CSC1=NC(/C=C/c2ccc(OCC)cc2)=CC(C)(C)N1,3.29%
14,COc1cccc(Oc2ccc(NC3=CC(=O)CC(C)(C)C3)cc2)c1,-4.48%
15,O=C(NCc1ccc2c(c1)OCO2)C1CCN(C(=O)c2cnn(-c3ccccc3)c2-n2cccc2)CC1,4.95%
16,CCOC(=O)C1CCN(Cc2cccc(C)c2)CC1,-3.82%
17,Cc1cccc(NC(=O)CN(CCc2ccccc2)S(C)(=O)=O)c1,-15.4%
18,O=C(NCc1ccccn1)c1cnn(-c2ccccc2)c1-n1cccc1,3.4%
19,O=C(O)C1CCCCC1C(=O)N1CCCCC1 (stereo not shown),4.12%
20,COC(=O)C1=C(O)/C(=C\c2ccccc2OC)N=C1C,-0.711%
21,CC1CCN(S(=O)(=O)c2ccc(NC(=O)c3ccco3)cc2)CC1,4.09%
22,CCc1ccc2ncc(C(=O)c3ccccc3)c(N3CCOCC3)c2c1,-7.3%
23,COc1cc(N)ccc1-c1ccc(N)cc1OC,-1.22%
24,COc1ccc(C(=O)/C=C/c2cccnc2)cc1,0.00178%
25,Cc1ccc(Cn2cnc3ccccc3c2=O)cc1,2.09%

row,Structure (SMILES),% Inhibition @ 10 uM
1,O=C(Nc1ccc(Br)cn1)c1ccc(COc2ccc(Cl)cc2)o1,-1.33%
2,CSc1ccccc1C(=O)Nc1ccc2c(c1)OC1(CCCCC1)O2,-0.105%
3,CCOC(=O)c1c(C)[nH]c(C)c1S(=O)(=O)N(C)C1CCCCC1,-4.02%
4,CC1(C)Cc2c(sc3ncn4nc(Cc5ccccc5)nc4c23)CO1,4.58%
5,O=c1c2nnn(Cc3ccccc3F)c2ncn1C/C=C/c1ccccc1,1.24%
6,CN(Cc1ccccc1)C(=O)C(CCS(C)(=O)=O)N1Cc2ccccc2C1=O (stereo not shown),-2.69%
7,COCCN1C(=O)C(O)=C(C(=O)c2ccccc2)C1c1ccc(C(C)C)cc1 (stereo not shown),4.66%
8,O=c1/c(=C\c2ccc(F)cc2)sc2nc3ccccc3n12,4.15%
9,COC(=O)C1=C(C)N(C2CCCCC2)C(=O)/C1=C\c1ccc(Cl)cc1,3.43%
10,Cc1c(C(=O)N2CCOCC2)oc2c1-c1nn(CC(=O)NCCN(C)C)cc1CC2,0.0171%
11,CCN(CC)c1ccc(NC(=O)c2ccccc2NC(=O)c2ccccc2)cc1,7.48%
12,CCCn1c2ccccc2c2nnc(SCC(=O)Nc3nc4c(s3)CCCC4)nc21,13.1%
13,CC(=O)Nc1ccc(C2C3=C(Nc4nc(O)nc(O)c42)C(=O)CC(C)(C)C3)cc1 (stereo not shown),-4.61%
14,N#CC1=C(N)Oc2c(oc(CO)cc2=O)C1c1ccccc1F (stereo not shown),-0.968%
15,CCC1CCCCN1C(=O)Cn1c(SCc2ccccc2F)nc2ccncc21 (stereo not shown),-2.37%
16,CCS(=O)(=O)N1CCCC(C(=O)NCc2ccc(C)cc2)C1 (stereo not shown),-1.79%
17,CCN(CC)C(=O)C12CC3CCC(CC(C3)C1)C2,-4.23%
18,O=S(=O)(c1cc(Cl)ccc1Cl)N1CCc2ccccc2C1,0.215%
19,Cc1ccc(-c2noc(CNC(=O)c3ccc(C)cc3C)n2)cc1,-2.99%
20,C=CCNC(=O)c1ccc(N2C(=O)c3ccccc3C2=O)cc1,2.95%
21,COc1cc(OC)c(C2=NOC3C(OC)OC(OC)C23)c(OC)c1 (stereo not shown),0.793%
22,CC1CCC2C(=O)N(c3cccc(O)c3)C(=O)C2C1 (stereo not shown),-12.6%
23,Cc1ccc(C(=O)OCC(=O)c2ccccc2)cc1,-3.48%
24,COCCNC(=O)CSc1[nH]c(-c2ccccc2)nc1-c1ccccc1,3.48%
25,COc1cccc(C(=O)Nc2ccc(Br)cc2C)c1,7.44%
